Assay results reported in paper PMC11015022.
These are yes or no findings as the source states them, for the method shown. In cells and extracts the contact can be indirect. Some entries that bind do so weakly or less than the wild type.

Protein sequences, listed by entry. Tags and fused reporters are not part of them.
UniProt P63017: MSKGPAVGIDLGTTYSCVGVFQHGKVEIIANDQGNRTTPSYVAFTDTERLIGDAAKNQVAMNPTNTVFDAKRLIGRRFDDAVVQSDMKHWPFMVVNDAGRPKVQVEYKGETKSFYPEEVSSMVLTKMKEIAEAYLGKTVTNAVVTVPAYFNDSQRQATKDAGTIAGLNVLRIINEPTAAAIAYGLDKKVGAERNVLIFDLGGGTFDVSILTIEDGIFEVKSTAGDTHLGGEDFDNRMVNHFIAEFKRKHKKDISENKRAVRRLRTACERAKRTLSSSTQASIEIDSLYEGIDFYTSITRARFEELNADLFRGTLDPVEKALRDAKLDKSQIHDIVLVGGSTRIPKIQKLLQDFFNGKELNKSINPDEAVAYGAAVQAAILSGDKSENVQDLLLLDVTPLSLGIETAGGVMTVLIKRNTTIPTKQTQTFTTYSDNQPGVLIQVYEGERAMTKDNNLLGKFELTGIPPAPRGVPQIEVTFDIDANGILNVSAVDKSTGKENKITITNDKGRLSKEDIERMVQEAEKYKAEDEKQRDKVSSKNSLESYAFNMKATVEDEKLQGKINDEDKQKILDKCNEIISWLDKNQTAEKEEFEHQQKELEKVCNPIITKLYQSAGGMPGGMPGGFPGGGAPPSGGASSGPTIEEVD
UniProt P11142: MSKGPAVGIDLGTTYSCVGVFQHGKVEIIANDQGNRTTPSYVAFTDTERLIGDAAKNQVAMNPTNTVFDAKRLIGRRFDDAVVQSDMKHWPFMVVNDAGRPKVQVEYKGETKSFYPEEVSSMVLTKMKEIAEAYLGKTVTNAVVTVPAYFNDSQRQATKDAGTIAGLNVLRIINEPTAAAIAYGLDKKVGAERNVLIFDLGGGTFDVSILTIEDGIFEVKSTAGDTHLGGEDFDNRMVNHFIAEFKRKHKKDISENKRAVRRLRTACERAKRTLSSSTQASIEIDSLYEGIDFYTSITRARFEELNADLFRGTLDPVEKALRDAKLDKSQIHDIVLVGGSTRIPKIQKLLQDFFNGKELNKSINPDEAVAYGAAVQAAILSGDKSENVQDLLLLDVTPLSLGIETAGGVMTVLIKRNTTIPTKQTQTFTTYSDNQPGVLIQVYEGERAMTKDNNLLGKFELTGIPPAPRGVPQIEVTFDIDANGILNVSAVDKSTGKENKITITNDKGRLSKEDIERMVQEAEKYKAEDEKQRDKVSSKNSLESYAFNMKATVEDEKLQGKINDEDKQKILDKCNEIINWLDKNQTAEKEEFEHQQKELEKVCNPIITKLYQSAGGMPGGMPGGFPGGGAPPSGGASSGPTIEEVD
UniProt P51807: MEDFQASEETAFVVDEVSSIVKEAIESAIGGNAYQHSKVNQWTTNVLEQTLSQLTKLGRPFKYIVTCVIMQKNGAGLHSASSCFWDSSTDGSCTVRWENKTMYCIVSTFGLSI
UniProt P63172: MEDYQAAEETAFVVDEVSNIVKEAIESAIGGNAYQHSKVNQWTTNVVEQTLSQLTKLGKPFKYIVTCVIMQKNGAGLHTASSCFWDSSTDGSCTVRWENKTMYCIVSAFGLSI
UniProt Q99104: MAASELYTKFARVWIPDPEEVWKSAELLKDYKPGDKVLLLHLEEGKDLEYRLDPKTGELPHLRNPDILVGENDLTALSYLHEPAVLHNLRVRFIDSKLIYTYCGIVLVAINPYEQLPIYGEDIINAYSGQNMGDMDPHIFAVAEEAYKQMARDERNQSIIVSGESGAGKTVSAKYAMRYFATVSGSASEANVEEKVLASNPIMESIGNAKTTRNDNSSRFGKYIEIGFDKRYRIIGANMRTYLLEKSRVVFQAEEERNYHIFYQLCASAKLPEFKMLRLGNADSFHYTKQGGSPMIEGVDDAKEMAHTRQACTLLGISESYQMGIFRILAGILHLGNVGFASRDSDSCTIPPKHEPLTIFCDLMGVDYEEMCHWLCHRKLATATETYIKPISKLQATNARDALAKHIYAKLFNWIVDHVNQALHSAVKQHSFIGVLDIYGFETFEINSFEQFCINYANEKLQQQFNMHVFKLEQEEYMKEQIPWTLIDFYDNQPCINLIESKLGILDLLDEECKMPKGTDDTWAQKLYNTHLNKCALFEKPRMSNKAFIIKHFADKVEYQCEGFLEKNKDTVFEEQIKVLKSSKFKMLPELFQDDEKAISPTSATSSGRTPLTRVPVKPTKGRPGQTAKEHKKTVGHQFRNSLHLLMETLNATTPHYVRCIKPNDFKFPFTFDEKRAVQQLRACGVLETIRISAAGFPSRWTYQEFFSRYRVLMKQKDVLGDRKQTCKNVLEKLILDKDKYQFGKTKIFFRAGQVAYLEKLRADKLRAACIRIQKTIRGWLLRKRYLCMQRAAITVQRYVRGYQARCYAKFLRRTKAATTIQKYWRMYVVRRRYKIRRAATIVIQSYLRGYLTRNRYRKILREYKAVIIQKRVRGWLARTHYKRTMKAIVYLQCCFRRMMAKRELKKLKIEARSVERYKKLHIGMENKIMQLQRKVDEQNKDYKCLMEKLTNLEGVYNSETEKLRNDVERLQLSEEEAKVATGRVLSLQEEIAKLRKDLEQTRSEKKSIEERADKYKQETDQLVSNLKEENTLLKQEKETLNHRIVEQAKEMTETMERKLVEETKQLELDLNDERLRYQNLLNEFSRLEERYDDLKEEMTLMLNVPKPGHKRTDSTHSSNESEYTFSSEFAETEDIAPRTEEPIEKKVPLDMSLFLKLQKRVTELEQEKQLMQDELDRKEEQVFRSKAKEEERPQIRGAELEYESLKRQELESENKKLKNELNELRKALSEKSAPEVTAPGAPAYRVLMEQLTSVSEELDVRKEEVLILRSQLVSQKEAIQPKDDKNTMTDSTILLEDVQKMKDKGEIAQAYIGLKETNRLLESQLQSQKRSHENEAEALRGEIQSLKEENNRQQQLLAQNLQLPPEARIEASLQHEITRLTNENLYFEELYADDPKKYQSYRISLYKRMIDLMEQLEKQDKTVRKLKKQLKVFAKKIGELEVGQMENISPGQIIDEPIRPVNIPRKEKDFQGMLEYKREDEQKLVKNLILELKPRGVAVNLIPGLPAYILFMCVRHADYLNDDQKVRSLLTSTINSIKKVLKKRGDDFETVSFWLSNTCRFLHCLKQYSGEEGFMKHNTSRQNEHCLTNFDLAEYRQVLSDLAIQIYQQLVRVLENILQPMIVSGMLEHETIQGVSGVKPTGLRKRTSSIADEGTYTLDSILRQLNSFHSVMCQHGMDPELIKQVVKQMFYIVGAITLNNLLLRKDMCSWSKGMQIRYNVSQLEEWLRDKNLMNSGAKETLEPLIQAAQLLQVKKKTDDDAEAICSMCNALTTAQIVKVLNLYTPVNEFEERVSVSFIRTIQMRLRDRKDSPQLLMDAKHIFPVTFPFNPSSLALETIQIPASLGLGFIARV
UniProt Q9Y4I1: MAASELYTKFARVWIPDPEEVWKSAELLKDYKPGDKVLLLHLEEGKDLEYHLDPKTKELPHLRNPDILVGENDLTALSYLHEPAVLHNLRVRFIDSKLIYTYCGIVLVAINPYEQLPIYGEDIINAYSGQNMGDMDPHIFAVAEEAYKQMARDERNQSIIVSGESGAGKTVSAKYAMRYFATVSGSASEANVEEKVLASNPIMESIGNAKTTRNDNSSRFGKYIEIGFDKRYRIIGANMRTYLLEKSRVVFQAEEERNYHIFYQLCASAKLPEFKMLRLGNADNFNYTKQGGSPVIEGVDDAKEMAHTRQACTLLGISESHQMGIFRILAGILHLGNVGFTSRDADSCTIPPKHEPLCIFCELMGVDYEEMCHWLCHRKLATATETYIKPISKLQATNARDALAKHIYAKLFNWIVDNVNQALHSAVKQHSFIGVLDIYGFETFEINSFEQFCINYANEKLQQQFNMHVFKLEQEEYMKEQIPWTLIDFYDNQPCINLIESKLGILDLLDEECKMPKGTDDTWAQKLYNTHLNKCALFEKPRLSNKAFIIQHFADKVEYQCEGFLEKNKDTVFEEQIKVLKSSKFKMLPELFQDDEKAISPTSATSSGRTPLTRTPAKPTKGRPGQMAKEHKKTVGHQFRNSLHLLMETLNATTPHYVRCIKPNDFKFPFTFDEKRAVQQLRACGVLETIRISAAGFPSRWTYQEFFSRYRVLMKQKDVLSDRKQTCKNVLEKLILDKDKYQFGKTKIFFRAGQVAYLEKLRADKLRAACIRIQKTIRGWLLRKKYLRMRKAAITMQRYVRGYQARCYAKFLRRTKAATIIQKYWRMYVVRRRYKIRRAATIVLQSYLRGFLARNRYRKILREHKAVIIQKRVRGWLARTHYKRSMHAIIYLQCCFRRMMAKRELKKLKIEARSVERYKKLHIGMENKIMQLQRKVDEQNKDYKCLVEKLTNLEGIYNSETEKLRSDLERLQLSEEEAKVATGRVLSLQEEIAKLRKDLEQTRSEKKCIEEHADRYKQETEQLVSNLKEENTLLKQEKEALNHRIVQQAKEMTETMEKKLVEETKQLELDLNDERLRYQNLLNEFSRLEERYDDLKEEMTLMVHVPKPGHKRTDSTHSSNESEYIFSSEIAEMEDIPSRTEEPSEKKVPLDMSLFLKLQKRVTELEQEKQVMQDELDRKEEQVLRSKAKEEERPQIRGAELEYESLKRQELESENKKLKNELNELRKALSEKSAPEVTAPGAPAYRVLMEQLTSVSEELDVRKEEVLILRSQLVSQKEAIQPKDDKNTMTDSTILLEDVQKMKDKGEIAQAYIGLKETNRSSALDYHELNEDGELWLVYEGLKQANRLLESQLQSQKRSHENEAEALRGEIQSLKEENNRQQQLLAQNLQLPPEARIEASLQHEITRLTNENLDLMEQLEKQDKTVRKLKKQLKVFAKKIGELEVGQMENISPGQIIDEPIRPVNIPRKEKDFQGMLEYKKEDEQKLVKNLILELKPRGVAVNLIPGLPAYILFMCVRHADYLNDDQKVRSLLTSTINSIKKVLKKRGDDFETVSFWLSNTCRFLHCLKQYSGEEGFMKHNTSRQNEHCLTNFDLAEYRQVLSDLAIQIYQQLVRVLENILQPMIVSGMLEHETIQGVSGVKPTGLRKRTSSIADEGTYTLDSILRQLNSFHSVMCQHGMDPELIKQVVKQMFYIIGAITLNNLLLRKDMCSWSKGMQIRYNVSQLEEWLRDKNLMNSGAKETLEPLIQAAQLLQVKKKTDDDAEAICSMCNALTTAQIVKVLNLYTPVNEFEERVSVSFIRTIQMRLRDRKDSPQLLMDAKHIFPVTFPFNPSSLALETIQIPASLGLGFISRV

Columns and labels:
[1] = biological target: HSPA8 (heat shock cognate 70 kDa protein) (mouse (endogenous in mouse testis)) (UniProt P63017); experiment: condition: only in the absence of BAG5 (Bag5 KO testes); co-IP; HSPA8 IP from Bag5 KO mouse testis lysate, Western blot; IgG as negative control
[2] = biological target: HSPA8 (heat shock cognate 70 kDa protein) (mouse (endogenous in mouse testis)) (UniProt P63017); experiment: co-IP; endogenous proteins from WT mouse testis lysate (20 mM HEPES, 150 mM NaCl, 0.5% NP-40, 1 mM DTT, pH 7.3), protein A/G magnetic beads, Western blot; IgG as negative control; in Fig. 8B lysates also treated with ATP (HSPA8-SPATA6 binding reduced)
[3] = biological target: T1, BAG5 (mouse (endogenous in mouse testis)) (UniProt Q8CI32); experiment: as above
T1 sequence: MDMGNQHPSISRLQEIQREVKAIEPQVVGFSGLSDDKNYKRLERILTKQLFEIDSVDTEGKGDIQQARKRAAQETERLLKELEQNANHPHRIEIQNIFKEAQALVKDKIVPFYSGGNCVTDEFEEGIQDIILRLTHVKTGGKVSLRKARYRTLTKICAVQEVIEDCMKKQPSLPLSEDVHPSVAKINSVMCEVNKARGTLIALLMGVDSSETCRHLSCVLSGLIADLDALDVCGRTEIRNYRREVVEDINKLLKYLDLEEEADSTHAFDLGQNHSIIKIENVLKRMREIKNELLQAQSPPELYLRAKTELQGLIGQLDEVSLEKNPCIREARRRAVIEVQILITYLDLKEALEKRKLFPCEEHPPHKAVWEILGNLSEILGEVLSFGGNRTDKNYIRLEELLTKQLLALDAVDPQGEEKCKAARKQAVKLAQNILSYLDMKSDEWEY

[4] = biological target: HSPA8 (in HeLa cells) (human (endogenous in HeLa)) (UniProt P11142); experiment: condition: only in the absence of BAG5 (BAG5 KO HeLa cells); co-IP; HSPA8 IP from BAG5 KO HeLa cells co-transfected with pCAG-BAG5 (or pCAG) and pCAG-SPATA6, Western blot; IgG as negative control
[5] = biological target: HSPA8 (in HeLa cells) (human (endogenous in HeLa)) (UniProt P11142); experiment: co-IP; HSPA8 IP from WT HeLa cells co-transfected with pCAG-BAG5 (or pCAG) and pCAG-SPATA6, Western blot; IgG as negative control

binding [1]	binding [2]	binding [3]	binding [4]	binding [5]	Substance
no binding	binds	binds			DYNLT1 (from UniProt P51807 1-113)
			no binding	binds	DYNLT1 (in HeLa cells) (from UniProt P63172 1-113)
no binding	binds	binds			MYO5A (from UniProt Q99104 1-1853)
			no binding	binds	MYO5A (in HeLa cells) (from UniProt Q9Y4I1 1-1855)
